# Results from PubChem BioAssay AID686979 (National Center for Advancing Translational Sciences (NCATS), 2013).
# “And” between values parts separate entries of the source, which are not always exact repeats. Equal values may be shown once. The whole screen tested about 420,000 compounds, of which about 50,000 (12%) were called active. The shares of active, inactive and inconclusive entries below differ from those in the screen. Calls come from the whole dose curve; as a rule, active = well fitted inhibition curve with a large enough effect; inconclusive = small, poorly fitted or top-dose-only effect; inactive = flat fitted curve, though single readings scatter. Potencies of inconclusive entries are left out as doubtful fits.
# Experiment: qHTS for Inhibitors of human tyrosyl-DNA phosphodiesterase 1 (TDP1): qHTS in cells in presence of CPT; note: nearly all actives have a fitted effect of over 55% in size
# Details: chicken DT40 Tdp1-/-;hTDP1 cells + 20 nM CPT, ATP luminescence, 48 h; activity change, negative = growth inhibition: at 46.2 µM (top of the series)
# How it was run: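 Cell growth measured by CellTiter-Glo luminescence after a minimum 48 h, 37 C compound exposure with 20 nM CPT in Tdp1-knockout DT40 cells stably expressing hTDP1, seeded 400/well; qHTS titration format.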
# % is set by controls: 0 for no effect and ±100 for the full control effect; potency is the fitted concentration of half-maximal effect; tags give direction and shape of the fitted curve.
Compound,Potency,"activity change, negative = growth inhibition"
CCOc1cc(C=O)cc(Cl)c1OCC(N)=O,"inconclusive [inhibitor, single point]",–
COc1ccc(Br)c2c1-c1nc(NC(=O)c3cccc(C)c3)sc1C2,"inconclusive [inhibitor, single point]",–
C[C@@]12C(=O)Nc3cc(Cl)ccc3C(=O)N1[C@H]1c3cc(Cl)ccc3OC[C@@H]1[C@@H]2c1ccccc1,active: 18.4 µM,–
C/C(CC(=O)NC(C)(C)C)=N\NC(N)=S,"inconclusive [inhibitor, single point]",–
CC1CCN(C(=O)CSc2c3c(nc4cc(Cl)ccc24)CCCC3)CC1,"inconclusive [inhibitor, single point]",–
CCOc1ccc(-n2nc(CO)c(C(=O)NCc3ccc(Cl)cc3)n2)cc1,inactive,–
Cn1c(Cc2ccc3c(c2)OCO3)nnc1SCC(=O)N1CCc2ccccc2C1,inactive,–
O=C(CCCn1c(SCC(=O)Nc2ccccc2Cl)nc2ccccc2c1=O)NCC1CCCO1 (configuration not stated),–,inconclusive: -31.1% [inhibitor]
C/C(=N\NC(=S)NCCc1ccccc1)c1ccc(Cl)cc1Cl,"inconclusive [inhibitor, single point]",–
CCN1/C(=C2/SC(=S)N(NC(C)=O)C2=O)Sc2ccc(OC)cc21,–,inconclusive: -31.4% [inhibitor]
Cc1[nH]n(-c2ccc([N+](=O)[O-])cc2)c(=O)c1C=NCCc1ccc(S(N)(=O)=O)cc1,"inconclusive [inhibitor, full curve]",–
COc1cc(OC)c(C2=NOC(C(=O)NCc3cccs3)C2)cc1Cl (configuration not stated),active: 2.31 µM,–
COc1ccc(CC(=O)O/N=C(\N)Cc2cccc3ccccc23)cc1OC,"inconclusive [inhibitor, single point]",–
Cc1cc(C)c(OCC(=O)N(Cc2ccccc2)C2CCS(=O)(=O)C2)c(C)c1 (configuration not stated),inactive,–
CCc1ccc(NC(=O)C2CCN(c3nnc(-n4c(C)ccc4C)s3)CC2)cc1,active: 16.4 µM,–
COc1ccc(F)cc1S(=O)(=O)NCCc1csc(-c2ccc(Cl)cc2)n1,"inconclusive [inhibitor, single point]",–
CCOc1ccc(-c2cn(-c3ccc(OC)cc3)c(SCC(=O)Nc3ccccc3Cl)n2)cc1,"inconclusive [inhibitor, single point]",–
O=C(NCCCN1CCN(CCCNC(=O)c2ccc3c(c2)OCO3)CC1)c1ccc2c(c1)OCO2,inactive,–
N#Cc1ccc(CN2CCC3(CC2)CCN(C(=O)c2cccc(F)c2)CC3)cc1,"inconclusive [inhibitor, partial curve, poor fit]",–
CC(=O)c1ccc(NC(=O)CSc2cn(CC(=O)N3CCCCC3)c3ccccc23)cc1,"inconclusive [inhibitor, single point]",–
NC(=O)CC(NC(=O)c1ccc(Br)cc1)c1ccc(N2CCN(c3ccccc3)CC2)c([N+](=O)[O-])c1 (configuration not stated),"inconclusive [inhibitor, single point]",–

Compound,Potency,"activity change, negative = growth inhibition"
N#CC(C(=O)NC1CCCCC1)c1nc2ccccc2nc1N1CCN(c2ccccc2F)CC1 (configuration not stated),"inconclusive [inhibitor, single point]",–
Cc1ccc(S(=O)(=O)N2CCOCC2)cc1C(=O)OCC(=O)c1ccc[nH]1,inactive,–
Cc1ccc(-n2ncc3c2ncn2nc(-c4ccco4)nc32)c(C)c1,"inconclusive [inhibitor, single point]",–
Cc1cc(S(=O)(=O)N2CCN=C2c2ccccc2)c(Cl)cc1Cl,"inconclusive [inhibitor, single point]",–
CC#CCN1c2ccccc2[C@]23C[C@@H](C(=O)OC)N(C(=O)NCCBr)C2=NC(C(=O)OC)=C(C(=O)OC)[C@H]13,inactive,–
CCc1nc2ccc(C(=O)NCCOc3ccc(OC)cc3)cn2c1N(C)C(=O)COc1ccccc1,"inconclusive [inhibitor, single point]",–
O=C(NCc1ccco1)Nc1ccc2nsnc2c1,active: 18.4 µM,–
COc1ccc(Oc2ccc(NC(=O)c3ccccc3C)cc2)cc1,"inconclusive [inhibitor, single point]",–
O=C(COc1ccc(Cl)cc1Br)Nc1cccc(S(=O)(=O)N2CCCC2)c1,"inconclusive [inhibitor, single point]",–
COc1ccc(OC)c(NC(=O)COc2ccc(S(=O)(=O)NC(C)C)cc2)c1,"inconclusive [inhibitor, single point]",–
Cc1ccc(S(=O)(=O)N2CCC3(CC2)OCCO3)s1,inactive,–
COc1ccc2[nH]c3c(c2c1)CCN1C(=O)N([C@@H](C)C(=O)NC2CCCCC2C)C(=O)[C@]31C (some centres not stated),"inconclusive [inhibitor, single point]",–
COc1cc2c(cc1OC)/C(=C/C(=O)c1ccc([N+](=O)[O-])c(C)c1)NCC2,"inconclusive [inhibitor, single point]",–
Cc1ccc(Nc2nc(N)c(C#N)c(CC#N)c2C#N)cc1,inactive,–
Cc1ccc(C(=O)N2CC(=O)Nc3ccc(F)cc3C2c2ccc(F)cc2)cc1[N+](=O)[O-] (configuration not stated),"inconclusive [inhibitor, single point]",–
COC(=O)c1ccccc1NC1=C/C(=N\S(=O)(=O)c2cccs2)c2ccccc2C1=O,active: 8.2 µM and active: 3.26 µM,–
CC(=O)Nc1ccc(NC(=O)c2cc([N+](=O)[O-])cc([N+](=O)[O-])c2)cc1,"inconclusive [inhibitor, single point]",–
CC(C)[C@H](NC(=O)C1CCN(C(=O)[C@@H]2CCCN2)CC1)C(=O)NCc1ccc(F)cc1,inactive,–
Cc1cc(C)c(S(=O)(=O)NCCc2cc3c(C)ccc(C)c3[nH]c2=O)c(C)c1,active: 7.31 µM,–
Clc1ccc(-c2noc(CN(Cc3ccccn3)CC3CCCO3)n2)cc1 (configuration not stated),"inconclusive [inhibitor, single point]",–
CC(NC(=O)c1ccco1)C(=O)N1CCN(c2cccc(Cl)c2)CC1 (configuration not stated),"inconclusive [inhibitor, single point]",–
